Measured values published in the supplement of paper PMC3334620.
The full ranking holds about 33,000 sequences; the median of “E-score (-0.5 to 0.5)” is about -0.012, and the highest 2% start at about 0.29. Some of the results follow.

Target: T1, Ybr033w (UniProt P38073)
T1 sequence: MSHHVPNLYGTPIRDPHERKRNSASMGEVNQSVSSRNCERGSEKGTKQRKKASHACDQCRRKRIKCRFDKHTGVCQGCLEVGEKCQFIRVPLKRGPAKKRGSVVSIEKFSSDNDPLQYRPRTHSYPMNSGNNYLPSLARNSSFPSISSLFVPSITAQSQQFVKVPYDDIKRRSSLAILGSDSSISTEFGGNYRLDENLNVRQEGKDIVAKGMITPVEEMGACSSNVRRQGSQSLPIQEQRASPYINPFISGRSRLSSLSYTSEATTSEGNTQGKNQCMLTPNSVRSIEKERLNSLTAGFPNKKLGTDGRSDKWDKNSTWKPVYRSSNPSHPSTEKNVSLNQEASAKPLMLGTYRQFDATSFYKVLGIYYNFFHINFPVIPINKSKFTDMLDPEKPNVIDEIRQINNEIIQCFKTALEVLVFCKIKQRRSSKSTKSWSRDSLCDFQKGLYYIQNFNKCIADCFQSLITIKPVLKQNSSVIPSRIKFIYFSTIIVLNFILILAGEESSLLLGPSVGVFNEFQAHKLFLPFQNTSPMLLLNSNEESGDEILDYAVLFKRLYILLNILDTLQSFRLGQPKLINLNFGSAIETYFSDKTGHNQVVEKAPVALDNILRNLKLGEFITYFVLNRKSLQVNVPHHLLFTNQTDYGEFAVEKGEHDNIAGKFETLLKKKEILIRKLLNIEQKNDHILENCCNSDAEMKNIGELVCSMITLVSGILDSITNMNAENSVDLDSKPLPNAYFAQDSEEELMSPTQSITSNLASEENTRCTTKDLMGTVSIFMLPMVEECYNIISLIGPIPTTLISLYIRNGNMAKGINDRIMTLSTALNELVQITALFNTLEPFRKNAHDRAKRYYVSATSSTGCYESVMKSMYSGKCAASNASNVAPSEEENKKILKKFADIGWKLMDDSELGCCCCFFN
Experiment: PBM E-score (8-mer binding enrichment) (E-score (-0.5 to 0.5)); higher = stronger / more preferred TF binding; most listed sequences are background and not binding sites
Settings: protein concentration: 200 nM; construct: GST-full length
Method in brief: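 Universal all-10-mer Agilent arrays, fresh or stripped once, were converted to double-stranded form by primer extension. GST-tagged yeast transcription factors from PURExpress in vitro transcription/translation, full-length or DNA-binding domain only, were applied at about 100-200 nM and detected with fluorescent anti-GST. After masliner normalisation, the Universal PBM Analysis Suite scored each ungapped eight-base word together with its reverse complement by E-score.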

Sequence | PBM E-score
CACCCTGG | -0.285
ACAGCCAC | -0.0773
CCTCATGC | -0.253
CCCCTTTA | -0.223
CGGTCGTC | -0.138
ACCATGGT | -0.184
ACTCTGAG | -0.214
GAGAACCA | 0.00903
CACGGGAA | -0.128
ATACTCTC | 0.158
CCCCCACC | -0.419
CCCAGACG | -0.308
CCTAGGTA | -0.0225
AGGCTCAG | -0.119
GGCGGAAA | 0.0617
ATACCCCC | -0.254
CGGGAAAC | 0.0713
CTACACTC | -0.139
TGCTACCA | -0.0533
TAGCACGA | 0.172
ACCTCTTG | -0.143
AACCCGAA | -0.0468

Sequence | PBM E-score
ATGGCTGA | -0.0728
CGCCGGAC | -0.243
CAATCCTG | 0.0991
CACTCCGG | -0.00518
AATCGAAG | 0.108
ATTTGCGG | 0.131
CCGATGCC | -0.114
TAGCGAGA | 0.104
AACCCTCT | -0.12
AGCCTAGC | -0.0427
CCGCGTCA | -0.239
AGACCCGA | -0.0272
ATTAGTAG | 0.158
GACTATCC | -0.107
ACACCTCT | -0.0836
CAGAGACA | -0.169
CTCCCATC | -0.0653
AACAACTT | 0.291
GCCACGGA | -0.179
ACACTTTG | 0.0993
GAATTAGA | 0.0828
CGGCCTCA | -0.00758

Sequence | PBM E-score
ACAACTTC | 0.237
AGCTCGTC | -0.251
TTATGAAA | 0.228
GCTGCAAA | 0.158
CCGCAAAA | 0.162
ATTAGACC | -0.0843
CCGATTCA | -0.0631
CGGGCCCA | -0.29
AGGACCCC | -0.285
GTGGGAAA | 0.201
CAACGACC | -0.122
CTCACCCA | -0.0925
CCGGGTAC | -0.241
CGTGACAC | -0.127
TATAGAGA | 0.0967
CGCGACTC | -0.0291
CCATTTCA | -0.0615
AGCAGATG | -0.192
CTCATGTA | 0.133
GCAACGAC | -0.0901
AATCGAAA | 0.188
AAAGCGGG | -0.177

Sequence | PBM E-score
CAAGAGTA | 0.0971
CCGACTCA | -0.104
AGTTTGTA | 0.184
CGATCGGA | -0.112
GAGACCAC | -0.182
AGGTTGAT | -0.00875
ATACCAGC | -0.012
CGATTACG | -0.00042
ATATCGAC | 0.043
CGTATTCA | 0.0755
GACCTACC | -0.0451
ATTTGAAG | -0.00835
GAGGTCCC | -0.106
ATATTACC | 0.227
TACTAGTA | 0.377
AATTATCG | 0.308
TGCGCACA | -0.00097
CGCGGGGC | -0.114
GCTAGCAA | -0.211
AGAAGAAA | 0.0907
